Screen size: about 150,000 compounds; about 6,500 (4.3%) were called active. The shares of active, inactive and inconclusive entries below differ from those in the screen. Calls follow the shape of the dose curve; as a rule, active = well fitted inhibition curve with a large enough effect (not every such curve was filed as active); inconclusive = small, poorly fitted or top-dose-only effect, or another doubt; inactive = no such curve, though single readings can be large or run the other way. Potencies beside an inconclusive call are fits to weak or partial responses and may not hold up.
Target: 15-hydroxyprostaglandin dehydrogenase [NAD(+)] (Homo sapiens) (UniProt P15428)
Sequence of UniProt P15428 (P15428 whole entry, looked up): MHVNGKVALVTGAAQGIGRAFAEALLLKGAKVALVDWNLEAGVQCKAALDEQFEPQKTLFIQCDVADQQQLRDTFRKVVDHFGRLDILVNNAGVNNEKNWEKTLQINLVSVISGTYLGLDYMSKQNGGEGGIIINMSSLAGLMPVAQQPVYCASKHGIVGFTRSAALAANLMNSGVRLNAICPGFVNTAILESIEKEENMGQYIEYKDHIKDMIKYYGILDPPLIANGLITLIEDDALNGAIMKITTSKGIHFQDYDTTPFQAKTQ
Assay: qHTS Assay for Inhibitors of HPGD (15-Hydroxyprostaglandin Dehydrogenase)
Details: purified HPGD, NADH fluorescence kinetic, PGE2 substrate; activity change, negative = inhibition: stronger effect = lower value
In short: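 NADH formation kinetics: reaction with 30 uM PGE2 and 1 mM NAD+ (final), 20 nM enzyme, Tris-HCl pH 8 with Tween 20, after 15 min compound preincubation at room temperature. Fluorescence change, last versus first of five reads.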
% is scaled to controls: 0 for no effect and ±100 for the full control effect; potency is read from the fitted curve at half-maximal effect; tags tell the direction and shape of the fitted curve.

Activity change, negative = inhibition, inactive:
CN(C)CCOC(=O)[C@@H](c1ccccc1)C1(O)CCCC1 -2.94%, COc1ccc(OC)c(S(=O)(=O)Nc2ccc(C(N)=O)cc2)c1 -1.79%, CN(CCC#N)C(=O)COC(=O)c1c2c(nc3ccccc13)/C(=C/c1ccco1)CC2 -9.77%, COc1ccc(-c2nnc(SCC(=O)Nc3ccc4c(c3)OCCO4)n2N)cc1OC 5.55%, Cc1cccc(NC(=S)NCCc2c[nH]c3ccccc23)c1 -15.8%, Cn1cccc1/C=C1\SC(=S)N(NC(=O)c2ccccc2)C1=O -12.9%, N#CC1=C(N)OC2=C(CN(Cc3ccccc3)C/C2=C\c2cccnc2)C1c1cccnc1 (stereo unspecified) -4.76%, COc1ccccc1CNc1ccnc(-c2ccccc2C(F)(F)F)n1 -10.8%, O=C1/C(=N\O)Cc2ccccc21 -12.4%, COc1ccc(OCCC(=O)Nc2cc(C)on2)cc1 -4.42%, Cn1c([N+](=O)[O-])cnc1CN1CCN(CCO)CC1 -7.61%, CC1CCCCC1NC(=O)Cn1cnc2ccccc2c1=O (stereo unspecified) -2.33%, CC(C)Nc1nnc(SCC(=O)c2c[nH]c3ccccc23)s1 -16.2%, CNC(=O)N(O)C1N(c2ccccc2)C(=S)SC1(C)C (stereo unspecified) -5.12%, O=C(Nc1ccccc1C(=O)N1CCOCC1)c1noc2c1CCCC2 -11.4%, C=C(C)C1CC=C(C)/C(=N\NC(=O)CCc2ccccc2)C1 (stereo unspecified) -3.13%, Cc1ccc(N=Nc2c(O)n(CN3CCOCC3)c3ccccc23)cc1 -3.95%

Potency, inconclusive:
O=C(O)CCC(NC(=O)C(Cc1ccc2c(c1)OCO2)NC(=O)c1ccccc1)C(=O)O (stereo unspecified) 15.8 µM [inhibitor, partial curve, poor fit], CC1CCN(c2c(NCc3ccc(C(=O)NCCc4ccc(Cl)cc4)cc3)c(=O)c2=O)CC1 7.94 µM [inhibitor, full curve, poor fit], CCOc1ccc2nc(NC(=O)c3ccoc3C)sc2c1 35.5 µM [inhibitor, partial curve], O=C(NCCc1cn2ccccc2n1)C1CCCCC1 31.6 µM [inhibitor, partial curve], COc1ccc(/C=C/C(=O)c2cccs2)c(OC)c1 31.6 µM [inhibitor, partial curve], COc1ccc(OC)c(-n2c(-c3ccc(C)cc3)n[nH]c2=S)c1 28.2 µM [inhibitor, partial curve], Cc1ccc2nc(NC(=O)c3ccc(OCC4CCCO4)cc3)sc2c1 (stereo unspecified) 22.4 µM [inhibitor, single point], COc1cccc(-c2ccc3ncnc(NCc4ccccc4OC)c3c2)c1 8.91 µM [inhibitor, partial curve], O=C1c2ccccc2NC(c2ccc(-c3cccc(Cl)c3)o2)N1O (stereo unspecified) 20 µM [inhibitor, partial curve], COc1cc(NCc2ccc3nc(N)nc(N)c3c2C)cc(OC)c1OC 28.2 µM [inhibitor, single point], Cc1noc(C)c1COc1ccc(C(=O)OCC(=O)NC23CC4CC(CC(C4)C2)C3)cc1 20 µM [inhibitor, single point], CCN(c1ccccc1)S(=O)(=O)c1ccc(NCC2COc3ccccc3O2)nc1 (stereo unspecified) 28.2 µM [inhibitor, partial curve], O=c1c(Cl)c(O)c2cccc3c4ccccc4n1c23 14.1 µM [inhibitor, partial curve], Cc1sc2nc3c(C(=O)N4CCN(c5ccccn5)CC4)cccn3c(=O)c2c1C 39.8 µM [inhibitor, single point], Cc1cccc(-n2cnc3cc([N+](=O)[O-])ccc32)c1 28.2 µM [inhibitor, partial curve], COc1cccc2oc(-c3ccccc3)cc(=O)c12 35.5 µM [inhibitor, partial curve], COCCn1c(=NC(=O)c2ccco2)sc2cc(C(=O)OC)ccc21 17.8 µM [inhibitor, partial curve], Cc1cc(C)c2c(n1)nn1c(C)c(CCC(=O)NCc3ccco3)c(C)nc21 25.1 µM [inhibitor, partial curve, poor fit], COC(=O)c1c(-c2ccc(F)cc2)csc1NC(=O)c1ccco1 25.1 µM [inhibitor, partial curve], COC(=O)C1=C(C)NC2=C(C(=O)CC(C)(C)C2)C1c1cccc(C)n1 (stereo unspecified) 35.5 µM [inhibitor, partial curve], CCc1[nH]c(=S)c(C#N)c(-c2ccccc2)c1C(=O)OC 14.1 µM [inhibitor, partial curve], CCOc1ccc(C(=O)/C=C/Nc2ccc(S(=O)(=O)Nc3onc(C)c3C)cc2)cc1 12.6 µM [inhibitor, partial curve], Cc1c(C(=O)Nc2ccc(Cl)cc2)c2ccccn2c1C(=O)c1ccccc1 22.4 µM [inhibitor, partial curve], O=C(Nc1nnc(SCC(=O)N2CCOCC2)s1)c1ccccc1Cl 22.4 µM [inhibitor, partial curve], COc1cc(/C=N/Nc2nc3ccccc3[nH]2)ccc1O 15.8 µM [inhibitor, partial curve], COc1ccc(NC(=O)c2cc(-c3cc(C)cc(C)c3O)n[nH]2)cc1Cl 28.2 µM [inhibitor, partial curve], CCC1(C)Cc2ccccc2-c2nc(NCCCO)n(-c3ccccc3)c(=O)c21 (stereo unspecified) 31.6 µM [inhibitor, partial curve], COc1ccccc1N=c1scc(-c2ccc3c(c2)NC(=O)CO3)n1CC1CCCO1 (stereo unspecified) 15.8 µM [inhibitor, partial curve], Cc1cccc(-c2cc3nc(-c4ccccc4)cc(N4CCC5(CC4)OCCO5)n3n2)c1 35.5 µM [inhibitor, partial curve], COc1ccc(-c2c(C(C)=O)c(C)nc3sc4c(c23)NC(c2ccccc2)NC4=O)cc1 (stereo unspecified) 22.4 µM [inhibitor, partial curve, poor fit], COc1ccc(NC(=O)/C(Cl)=C(/Cl)S(=O)Cc2ccccc2)cn1 (stereo unspecified) 10 µM [inhibitor, partial curve], Cc1nc(NCc2ccccc2)c2nc(-c3ccccc3)n(CCN(C)C)c2n1 25.1 µM [inhibitor, partial curve], COc1cc(C(=S)N2CCCC2)ccc1OC(=O)c1ccc(Cl)cc1[N+](=O)[O-] 17.8 µM [inhibitor, partial curve], CNc1nc2c(C)cccn2c(=O)c1C=NCc1ccccc1 35.5 µM [inhibitor, partial curve], CCn1c(SCC(=O)c2ccc3c(c2)OCCO3)nnc1-c1ccco1 22.4 µM [inhibitor, single point], O=C(COc1ccccc1-c1ccccc1)N/N=C/c1cccc2ccccc12 35.5 µM [inhibitor, single point], CNS(=O)(=O)c1cccc(C(=O)OCC(=O)C23CC4CC(CC(C4)C2)C3)c1 17.8 µM [inhibitor, partial curve], COc1ccc(/C=C2/SC(=O)N(CCNC(=O)C3CCCN3C(=O)c3cccs3)C2=O)cc1 (stereo unspecified) 28.2 µM [inhibitor, partial curve], CCc1cc2c(CN3CCN(CC)CC3)cc(=O)oc2cc1O 25.1 µM [inhibitor, partial curve], N#Cc1nc(-c2ccccc2)oc1N1CCCCC1 3.16 µM [inhibitor, partial curve]

Potency, active:
CNC(=O)c1ccc(Nc2nnc(-c3ccc(C)c(S(=O)(=O)NCC4CCCO4)c3)c3ccccc23)cc1 (stereo unspecified) 25.1 µM, Cc1[nH]nc2c1/C(=N/O)CC(c1ccccc1)C2 (stereo unspecified) 14.1 µM, Cc1ccc(S(=O)(=O)N[C@@H](Cc2ccccc2)C(=O)CCl)cc1 20 µM, CN(Cc1ccco1)S(=O)(=O)c1ccc2c(c1)CCN2C(=O)CCC(=O)O 14.1 µM, O=C(NC(Cc1c[nH]c2ccccc12)c1nnc2n1CCCCC2)c1ccccc1Cl (stereo unspecified) 25.1 µM, O=C(COc1ccc2ccccc2c1)NC1CC1 31.6 µM, CCn1ncc(CNC(=O)C2(C)CC2(Br)Br)c1C (stereo unspecified) 14.1 µM, O=C(c1ccc2c3c(cccc13)CC2)N1CCOCC1 11.2 µM, COc1ccccc1N1C(=N)S/C(=C\c2ccc(-c3ccccc3C(=O)O)o2)C1=O 25.1 µM, CCc1n[nH]c(=S)n1/N=C/c1cc(Br)c(OC)cc1OC 7.94 µM, Cc1ccc(N2C(=O)C3C4C=CC(CNC(=S)Nc5ccc(F)cc5)(O4)C3C2=O)cc1 (stereo unspecified) 17.8 µM, Cc1ccc(C(=O)Oc2ccc3c(c2)ncn3C)cc1 7.94 µM, O=C(CCc1ccc(Oc2cc([N+](=O)[O-])cc([N+](=O)[O-])c2)cc1)N1CCCCCC1 0.891 µM, O=C(NCc1cccs1)c1ccccc1[N+](=O)[O-] 12.6 µM

— PubChem BioAssay AID894 (National Center for Advancing Translational Sciences (NCATS), 2007)
